From PubChem BioAssay AID1240 (Sanford-Burnham Center for Chemical Genomics, 2008)
Among all 50,000 compounds or so, about 800 (1.6%) showed an effect of 50% or more. Some of the results follow.

These compounds were tested against Bcl-2-like protein 10 (Homo sapiens) (UniProt Q9HD36) (assay: TR3 peptide-Bcl-B binding displacers, biochemical primary FP assay, phenotype converters (AID 1240;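 further: 0% = Bcl-B with tracer peptide and DMSO and 100% = tracer peptide lacking Bcl-B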)). Conditions: GST-Bcl-B / FITC-TR3 peptide fluorescence polarization; stronger effect = higher value; compound at 3.75 mg/L.
UniProt Q9HD36, sequence (Q9HD36 whole entry, looked up): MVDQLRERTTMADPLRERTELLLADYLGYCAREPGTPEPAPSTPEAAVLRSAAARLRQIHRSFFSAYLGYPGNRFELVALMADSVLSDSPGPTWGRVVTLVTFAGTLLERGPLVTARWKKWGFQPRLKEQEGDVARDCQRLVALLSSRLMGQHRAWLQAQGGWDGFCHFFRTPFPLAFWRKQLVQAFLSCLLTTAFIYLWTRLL

Row | Structure (SMILES) | displacement [%]
1 | COc1ccccc1N1CCN(C(=O)COc2cccc3ccccc23)CC1 | -3.8
2 | O=C(N/N=C\c1ccccn1)c1n[nH]c2c1CCC2 | -19.7
3 | CC(C)CC(=O)N1CCN(Cc2cccc(Oc3ccccc3)c2)CC1 | -0.4
4 | COc1ccccc1N1CCN(C(=O)Cn2cnc3c2c(=O)n(C)c(=O)n3C)CC1 | 6.8
5 | NC(=O)CCC(NC(=O)c1ccc(-c2ccccc2)cc1)C(=O)O (stereo not given) | 5
6 | COC(=O)c1cc(C(=O)NCC2CCCO2)cc([N+](=O)[O-])c1 (stereo not given) | -23.7
7 | Cc1cccc(-c2noc(-c3ccc(Br)cc3)n2)c1 | -1.7
8 | Cc1cc(OCC(=O)Nc2ccccc2CO)ccc1Br | 10.1
9 | CCCC(=O)Nc1ccc(-c2nc3cc(C)c(C)cc3o2)cc1 | 14.7
10 | Cc1cc(C)cc(OCC(=O)Nc2ccc(C)cc2Br)c1 | 4.3
11 | CCc1ccc(C(C)NC(=O)c2ccccc2)cc1 (stereo not given) | 5.1
12 | CCOc1ccc2oc(C)c(C(=O)OC(C)C)c2c1 | 12.2
13 | Cc1nccn1S(=O)(=O)c1ccc(Br)cc1 | 13.2
14 | Cc1ccc(CC2C(=O)N(c3ccc(I)cc3)C(=O)C2C)cc1 (stereo not given) | 5
15 | O=C(COc1ccc(Cl)cc1Cl)N1CCN(c2ccccc2)CC1 | -12.2
16 | Cc1cc(-c2ccc(C)o2)c(C#N)c(=S)[nH]1 | 17.7
17 | O=C(O)/C=C/c1ccc(-c2ccccc2Cl)o1 | 5.8
18 | Cc1ccnc(NC(=O)c2sc3ccccc3c2Cl)c1 | 8.5
19 | COc1ccc(CNC(=O)CN(c2ccccc2OC)S(=O)(=O)c2ccccc2)cc1 | 17
20 | Cc1ccc(C)c(S(=O)(=O)n2nnc3ccccc32)c1 | 4.5
21 | O=C(Cn1cc(/C=c2/sc3nc4ccccc4n3c2=O)c2ccccc21)Nc1ccccc1 | 41.9
22 | COc1cc(NC(C)=O)ccc1NC(=O)c1ccco1 | 10.5
23 | O=C1c2ccc([N+](=O)[O-])cc2C(=O)N1Cc1ccccc1 | 0.3
24 | COC(=O)c1ccccc1NC(=O)CN(c1ccc(Br)cc1)S(C)(=O)=O | 5.9
25 | O=C(CSc1nc2ccccc2s1)OCC(=O)c1ccc(Cl)cc1 | 5
26 | O=C1CCC(=O)N1CNc1ccc(Oc2ccccc2)cc1 | 3.3
27 | COC(=O)c1ccc(OCc2cc(C(=O)OC)oc2C)cc1 | 4.7
28 | Cc1cccc(N2C(=O)CSC23C(=O)Nc2ccccc23)c1 (stereo not given) | 6.2

Row | Structure (SMILES) | displacement [%]
29 | CC(=O)Nc1ccc(S(=O)(=O)N/N=C/c2ccco2)cc1 | 11.4
30 | CCOC(=O)C1=C(O)/C(=C/c2cccc([N+](=O)[O-])c2)SC1=Nc1cccc2ccccc12 | -8.7
31 | COc1cc(NC(=O)c2cc([N+](=O)[O-])ccc2N2CCCCCC2)c2ncccc2c1 | 15.6
32 | CC(=O)c1ccc2c3c(onc13)-c1ccccc1C2=O | 2.4
33 | Cc1nc(=O)c(-c2ccccc2)c(C)n1-c1ccc(OCC(=O)O)cc1 | 0.5
34 | COc1ccc(-c2cc(O)c3c(C)oc(C)c3c(=O)c2)cc1OC | 13.8
35 | CCOc1ccc(N(CC(=O)Nc2ccc(C)cc2)S(C)(=O)=O)cc1 | -6.2
36 | Cc1cc(=O)n2[nH]c(C)c(-c3ccccc3)c2n1 | 0
37 | Cc1cccc(-n2c(C)cc(C=C(C#N)C#N)c2C)c1 | 1.5
38 | Cc1ccc(/C=C/C(=O)NCc2ccc(F)cc2)cc1 | -3.1
39 | O=C(CC1S/C(=N\N=C\c2cccs2)NC1=O)Nc1ccc(Cl)c(Cl)c1 (stereo not given) | 7.8
40 | C=CCOc1ccc(/C=C2\C(=O)NC(=O)N(c3ccc(Cl)cc3)C2=O)cc1OC | 22.1
41 | CCN(CC)C(=O)CN(c1cccc(C(F)(F)F)c1)S(C)(=O)=O | 3.3
42 | C=CCCCC(=O)Nc1ccc(Cl)cc1Cl | 10.7
43 | Cc1ccc([N+](=O)[O-])cc1NC(=O)C(C)Oc1ccccc1 (stereo not given) | -1.7
44 | CSC1=C(C#N)C(c2ccncc2)C(C(=O)Nc2ccccc2)=C(C)N1 (stereo not given) | -2.9
45 | Cc1ccc(CN2CCN(CCNC(=O)C(=O)Nc3ccc(F)cc3)CC2)cc1 | 5.2
46 | CCOC(=O)C1=C(C)NC(=S)NC1c1cccc2ccccc12 (stereo not given) | -5
47 | Cc1ccc(S(=O)(=O)N(c2ccccc2)C2C=CS(=O)(=O)C2)cc1 (stereo not given) | -8.1
48 | COC(=O)c1ccccc1NC(=O)COc1ccc(C)c(C)c1 | 1.3
49 | O=C(Nc1ccccc1-c1ccccc1)c1ccc(I)cc1 | 8.3
50 | Cc1nn(C(=O)c2ccc(F)cc2)c(C)c1Sc1ccccc1 | 0.6
51 | COc1cccc(C(=O)Nc2ccc(OC(F)(F)F)cc2)c1 | 10.2
52 | CCO/C(C)=C1\C(=O)N(CC)c2ccccc21 | 9
53 | Cc1cc(-c2ccc(NC(=O)c3cccs3)c(C)c2)ccc1NC(=O)c1cccs1 | 6.6
54 | CCc1cc2c(N/N=C\c3ccc([N+](=O)[O-])o3)ncnc2s1 | -4.6
55 | CCCCOc1ccc(NC(=O)COc2cccc(C)c2C)cc1 | 1.2
